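Step 1: Grow cells in 96-well plates. Step 2: Expose to compound for 48 hours at 5 concentrations. Step 3: Interpolate endpoints linearly; if unreached, use highest concentration. Abbreviation: GI50, concentration required for 50% inhibition of growth. TGI denotes the concentration required for complete inhibition of growth.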
Test system: NCI-H322M lung
Experiment: NCI tumour cell line growth inhibition, 48 h

Structure (SMILES)	GI50 [µM]	TGI [µM]
C=C(c1ccc(OC)c(N)c1)c1cc(C)nc2ccccc12	< 0.01	> 100
O=C(Cn1c(-c2ccccc2)nc2ccccc21)N=Nc1c(O)[nH]c2ccc(Br)cc12	14.1	30.5

Source: PubChem BioAssay (NCI)
